# Test results: PubChem BioAssay (NCATS)
# Values joined by “and” are separate entries in the source; they are usually repeats but may differ in a detail not shown here. Identical values can stand only once. The list shows a part of the results. Further columns of the screen follow, without active or inactive calls. For some assays here: Most of these compounds were active or inconclusive in the main read-out, so they are no random draw. For some assays here: The note in brackets gives the kind of curve behind each potency; many fits are weak.
# Columns and labels:
# [1] = qHTS Assay for Lipid Storage Modulators (AID 1519); details: Drosophila S3 cells, BODIPY lipid droplet/cell ratio, laser cytometry, cells loaded with oleic acid
# Outline: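 Cells seeded at 5,000 per well were treated with compounds over a concentration series and loaded with oleic acid (400 uM, as added). Lipid droplet fluorescence (488 nm excitation, 500-530 nm channel) was read by laser-scanning cytometry and normalized to 20 uM Triacsin C.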
# [2] = S16 Schwann cell PMP22 intronic element beta-lactamase assay (AID 624044); details: S16 rat Schwann cells, PMP22 element beta-lactamase FRET, 24 h; also: nearly all actives have a fitted effect of over 15% in size
# Outline: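 Beta-lactamase reporter under a PMP22 intronic regulatory element in stable S16 rat Schwann cells; 24 h compound exposure. 460 nm blue signal normalized between DMSO (0%) and potassium clavulanate, with 535 nm FRET tracking viability; curves classed by r2 and response.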
# [3] = qHTS Assay for Inhibitors of PDE-IV (AID 607); details: HEK293 ACTOne CNG channel cells, membrane potential fluorescence; measured here: parental cell counter-screen;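 also: parental cells stimulated with forskolin 10 µM plus RO 20-1724 100 µM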
# Outline: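 Cell-based read-out of cAMP via a modified cyclic nucleotide-gated channel and membrane potential dye (535/590 nm) in HEK293 cells expressing PDE4 endogenously. Compounds tested up to 22.9 uM final; 100 uM RO 20-1724 reference.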
# [4] = qHTS Assay for Modulators of Human Peripheral Myelin Protein 22 (PMP22) Expression/Activity (AID 1967); details: Cell-based PMP22 reporter, dual-color luciferase ratio
# Outline: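 Readout is the corrected green/red luminescence ratio after 24 h compound exposure, normalised to untreated cells (0%). Engineered MSC80 mouse Schwann cells express green luciferase from the mouse Pmp22 promoter and red luciferase from EF-alpha as internal control.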
# [5] = qHTS Validation Assay to Find Inhibitors of Chronic Active B-Cell Receptor Signaling (AID 485345); details: ABC-DLBCL cells, chronic BCR signaling reporter; measured here: CBR control luciferase (viability counter)
# Outline: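 Read-out: ratio of filter-corrected green (IkappaBalpha fusion) to red (native) luciferase signal in doxycycline-induced TMD8 cells after 4 h at 37C. Titration spanned 46 uM–3 nM; Data were normalised to basal cells and 10 uM MG-132 wells.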
# [6] = A High-Content qHTS Against Drug Library for the Identification of Small Molecules that Inhibit DYT1 Early Onset Primary Dystonia-Associated Cell Pathology (AID 1645839); details: HEK293 Flp-In EGFP-delE TorsinA, punctate imaging, 48 h; measured here: cell count cytotoxicity
# Outline: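 High-content imaging quantified EGFP-TorsinA mislocalization in HEK293-derived cells inducibly expressing DYT1 mutant torsinA, after 48 h exposure to compound given together with tetracycline induction. Cell count served as a toxicity channel alongside %pathology.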
# [7] = Nrf2 qHTS screen for inhibitors: Validation (AID 493153); details: A549 ARE-Fluc reporter, 18-24 h; AC50: CellTiter-Fluor fluorescence read, measured here: cytotoxicity CellTiter-Fluor AC50; viability change: measured here: cytotoxicity max response
# Outline: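 Concentration-response test in A549 ARE_Fluc reporter cells (5% FBS OPTI-MEM), compound exposure 18-24 h at 37°C, 5% CO2. Cell viability measured first by CellTiter-Fluor fluorescence; ARE-driven luciferase luminescence then measured as Nrf2 activity.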
# [8] = qHTS drug screen for cell cycle checkpoint inhibitors in PARPi-resistant BRCA-mutant ovarian cancer cell lines. (AID 1963452); details: PEO1/OlaR viability, CellTiter-Glo luminescence, 96 h
# Outline: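 PEO1, PEO4 and PEO1/OlaR ovarian cancer cells, 600 per well, exposed 96 h at 37C to a dilution series. Viability read by CellTiter-Glo luminescence, normalized to DMSO and empty wells; activity summarized as Z-AUC.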
# [9] = qHTS for identification of novel therapeutic agents for treatment of microphthalmiaassociated transcription factor (MiT) renal cell carcinoma (RCC) (AID 1963991); details: CellTiter-Glo, 48 h; for z-score: stronger effect = lower value
# Outline: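 Curves over 11 concentrations were fitted to CellTiter-Glo luminescence, scaled between empty wells (0%) and DMSO (100%) viability. Cells were UOK109, UOK124 and UOK145 TFE3-fusion RCC lines at 500/well, exposed 48 hours at 37 C.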
# [10] = target: Histamine N-methyltransferase (Homo sapiens) (UniProt P50135); experiment: Confirmatory Screen for Target Class Profiling of Small Molecule Inhibitors of Methyltransferases (AID 1745852); details: MTase-Glo luminescence, SAH detection, recombinant enzyme; measured here: HNMT inhibition potency;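 also: inhibitor potency for blocking SAH production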
# [11] = target: Catechol O-methyltransferase (Homo sapiens) (UniProt P21964); experiment: as above; details: MTase-Glo luminescence, SAH detection, recombinant enzyme; measured here: COMT inhibition potency
# [12] = qHTS assay for small molecule antagonists of peroxisome proliferator-activated receptor delta signaling (AID 588535); details: HEK293T PPARd-UAS-bla, beta-lactamase FRET ratio, 18 h; 460 nm channel;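 also: cells co-treated with a PPAR-delta agonist as stimulator during compound exposure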
# Outline: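 Antagonist-mode qHTS using GeneBLAzer PPAR-delta-UAS-bla HEK293T cells; compound exposure 18 hrs at 37 C over a titration. Ratiometric CCF4 fluorescence at 460/530 nm; concentration-response points fitted to the Hill equation.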
# [13] = qHTS assay for small molecule antagonists of vitamin D receptor signaling (AID 588541); details: HEK293T VDR-UAS-bla, beta-lactamase ratio, antagonist mode; measured here: W460 blue channel (cell viability)
# [14] = qHTS assay for small molecule agonists of retinoid X receptor alpha signaling (AID 588544); details: HEK293T RXRa-UAS-bla, beta-lactamase reporter, 18 h; 530 nm emission
# [15] = NCATS anti-infectives library activity on the primary C. elegans qHTS viability assay (AID 1745855); details: C. elegans worm area imaging, day 7, measured here: worm number
# Outline: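 Titration-based screen in worms: eggs hatched overnight in M9, L1 larvae fed TOP10 capsules in S medium with compound, incubated 21 °C for 7 days; fluorescent objects gated by size and intensity at days 0, 3 and 7.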
# [16] = measured here: cell count channel max response
# [17] = measured here: lipid (BODIPY) channel AC50
# [18] = measured here: lipid channel max response
# [19] = measured here: 460 nm blue channel
# [20] = measured here: cell number channel AC50
# [21] = measured here: green reporter channel AC50, mouse Pmp22 promoter in mouse Schwann cells
# [22] = measured here: red reporter channel AC50, EF-alpha promoter control reporter in MSC80 mouse Schwann cells
# [23] = measured here: PEO1 parental viability
# Tags tell the direction and shape of the fitted curve.
# UniProt P21964, sequence (P21964 whole entry, looked up): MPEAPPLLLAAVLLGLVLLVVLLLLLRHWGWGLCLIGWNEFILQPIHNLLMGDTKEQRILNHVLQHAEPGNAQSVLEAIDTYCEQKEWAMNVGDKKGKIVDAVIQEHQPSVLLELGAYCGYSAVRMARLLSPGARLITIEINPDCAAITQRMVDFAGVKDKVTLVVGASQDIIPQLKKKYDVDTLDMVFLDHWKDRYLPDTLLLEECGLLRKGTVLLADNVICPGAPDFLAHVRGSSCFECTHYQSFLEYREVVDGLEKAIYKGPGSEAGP
# UniProt P50135, sequence (P50135 whole entry, looked up): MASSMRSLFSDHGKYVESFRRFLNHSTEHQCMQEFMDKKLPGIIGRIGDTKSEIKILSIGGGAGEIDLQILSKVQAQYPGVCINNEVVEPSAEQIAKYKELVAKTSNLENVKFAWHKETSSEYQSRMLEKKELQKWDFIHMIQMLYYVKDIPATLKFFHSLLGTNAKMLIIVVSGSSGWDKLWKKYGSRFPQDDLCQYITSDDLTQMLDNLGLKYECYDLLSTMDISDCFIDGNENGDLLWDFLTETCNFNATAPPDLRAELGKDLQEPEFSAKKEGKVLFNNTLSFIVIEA
smiles,measurement,setting,value
CC(C[N+](C)(C)C)OC(N)=O (stereo unspecified),max response,[1]; [16],28.9%
same,AC50,[1]; [17],"25.1 µM [rising, single point]"
same,max response,[1]; [18],53.4%
same,AC50,[2]; [19],"0.398 µM [falling, full curve, poor fit]"
CN1CCN(c2ncc3nc(CCc4ccccc4)c(=O)n(CCc4ccccc4)c3n2)CC1,AC50,[3],"15.8 µM [rising, single point]"
same,max response,[1]; [16],15.1%
same,AC50,[1]; [17],"0.355 µM [rising, full curve, poor fit]"
same,max response,[1]; [18],15.9%
Cc1ccccc1-c1ccc2ncnc(NCc3cccnc3)c2c1,AC50,[3],"10 µM [rising, partial curve]"
same,max response,[1]; [16],11.2%
same,AC50,[1]; [20],"3.55 µM [rising, single point]"
same,max response,[1]; [18],10.2%
CCCCCN=c1ccn(Cc2ccccc2)c2ccccc12,AC50,[3],"15.8 µM [rising, partial curve]"
same,max response,[1]; [16],37.1%
same,AC50,[1]; [20],"0.631 µM [rising, full curve, poor fit]"
same,max response,[1]; [18],-84.3%
Cc1ccccc1-c1ccc2ncnc(NCc3cccs3)c2c1,AC50,[3],"10 µM [rising, partial curve]"
same,max response,[1]; [16],2.52%
same,AC50,[1]; [17],"5.01 µM [rising, partial curve, poor fit]"
same,max response,[1]; [18],-0.433%
CN(C)C(=O)Nc1ccc(Cl)c(Cl)c1,max response,[1]; [16],27.5%
same,AC50,[1]; [17],"17.8 µM [rising, partial curve]"
same,max response,[1]; [18],40.1%
same,AC50,[2]; [19],"0.891 µM [falling, full curve, poor fit]"
same,AC50,[2]; measured here: 530 nm viability channel,"1.26 µM [falling, full curve, poor fit]"
C=C(NC(=O)C(=C)NC(=O)c1csc(C2=N[C@@H]3c4csc(n4)[C@@H]4NC(=O)c5csc(n5)[C@@H]([C@](C)(O)[C@H](C)O)NC(=O)[C@@H]5CSC(=N5)/C(=C/C)NC(=O)[C@@H]([C@H](C)O)NC(=O)c5csc(n5)[C@]3(CC2)NC(=O)[C@@H](C)NC(=O)C(=C)NC(=O)[C@@H](C)NC(=O)[C@@H]([C@@H](C)CC)N[C@H]2C=Cc3c([C@H](C)O)cc(nc3[C@@H]2O)C(=O)O[C@H]4C)n1)C(N)=O,max response,[1]; [16],5.71%
same,AC50,[1]; [17],"14.1 µM [falling, single point]"
same,max response,[1]; [18],-69.3%
same,AC50,[2]; [19],"13.4 µM [falling, single point]"
O=C(c1cccc(F)c1)N1CCC2(CCCN(c3ccccc3)C2)CC1,AC50,[3],"10 µM [rising, single point]"
same,max response,[1]; [16],15.5%
same,AC50,[1]; [20],"6.31 µM [rising, single point]"
same,max response,[1]; [18],17.4%
CN1C(C(=O)Nc2ccccn2)=C(O)c2sccc2S1(=O)=O,max response,[1]; [16],25.2%
same,AC50,[1]; [17],"20 µM [rising, partial curve, poor fit]"
same,max response,[1]; [18],46%
same,AC50,[2]; [19],"0.00337 µM [falling, full curve, poor fit]"
COC(=O)[C@@H]1[C@H]2C[C@H]3c4[nH]c5ccccc5c4CCN3C[C@@H]2CC[C@@H]1O,max response,[1]; [16],15.7%
same,max response,[1]; [18],16%
same,AC50,[4]; [21],"33.8 µM [falling, partial curve]"
same,AC50,[4]; [22],"47.8 µM [falling, partial curve]"
same,AC50,[5],"7.31 µM [falling, partial curve, poor fit]"
same,AC50,[6],"11.2 µM [rising, partial curve, poor fit]"
Clc1ccccc1C(c1ccccc1)(c1ccccc1)n1ccnc1,max response,[1]; [16],52.6%
same,max response,[1]; [18],50.8%
same,AC50,[4]; [21],"47.8 µM [falling, partial curve]"
same,AC50,[4]; [22],"42.6 µM [falling, partial curve]"
same,viability change,[7],4.88%
same,AC50,[6],"8.91 µM [falling, partial curve]"
same,AC50,[8]; [23],"17.4 µM [falling, single point]"
same,AC50,[8]; measured here: PEO4 viability,"15.5 µM [falling, single point]"
same,z-score,"[9]; TFE3-RCC UOK109 viability, measured here: UOK109 Z-AUC",0.174
same,z-score,"[9]; TFE3-RCC viability, measured here: UOK124 Z-AUC",0.78
same,z-score,"[9]; TFE3-RCC viability, measured here: UOK145 Z-AUC",0.279
same,AC50,"[9]; TFE3-RCC viability, measured here: UOK145 cell viability","14.8 µM [falling, partial curve, poor fit]"
CCc1cccc(N(C)C(N)=Nc2cccc3ccccc23)c1,AC50,[3],"12.6 µM [rising, partial curve]"
same,max response,[1]; [16],46.3%
same,max response,[1]; [18],45.2%
same,AC50,[4]; [21],"60.1 µM [falling, partial curve]"
same,AC50,[4]; [22],"67.5 µM [falling, partial curve]"
same,AC50,[5],"18.4 µM [falling, single point]"
same,AC50,[6],"25.1 µM [falling, single point]"
same,IC50,[10],"27.3 µM [falling, partial curve, poor fit]"
CCCCNc1ccc(C(=O)OCCN(C)C)cc1,max response,[1]; [16],-19.2%
same,max response,[1]; [18],-16.5%
same,AC50,[4]; [22],"3.01 µM [rising, full curve]"
same,AC50,[2]; [19],"6 µM [falling, partial curve, poor fit]"
same,AC50,[6],"20 µM [falling, single point]"
Oc1ccc(C2CNCCc3c2cc(O)c(O)c3Cl)cc1 (stereo unspecified),max response,[1]; [16],69.3%
same,max response,[1]; [18],70.6%
same,AC50,[4]; [22],"84.9 µM [falling, single point]"
same,IC50,[11],"0.432 µM [falling, full curve]"
Nc1ncn([C@@H]2O[C@H](CO)[C@@H](O)[C@H]2O)c(=O)n1,max response,[1]; [16],53.9%
same,max response,[1]; [18],55%
same,AC50,[4]; [21],"37.9 µM [falling, partial curve]"
same,AC50,[4]; [22],"30.1 µM [falling, partial curve]"
same,AC50,[5],"3.66 µM [rising, full curve]"
same,AC50,[7],"4.11 µM [falling, full curve]"
same,viability change,[7],-37%
same,max response,[12],-67.7% and 5.7%
same,AC50,[13],"17.8 µM [falling, partial curve, poor fit]"
same,max response,[14],1.27%
same,AC50,[6],"7.94 µM [falling, partial curve, poor fit]"
same,AC50,[15],"32.5 µM [falling, single point]"
same,AC50,[8]; [23],"17.4 µM [falling, partial curve]"
same,AC50,[8]; measured here: PEO4 viability,"11 µM [falling, partial curve]"
